The values that follow come from PMC9911399, “Two distinct binding modes provide the RNA-binding protein RbFox with extraordinary sequence specificity”.

B1: AACCGCA (DNA:RNA)
RNA: GGGAGACCGGAAUUCAGAUUGUCCAACCGCAUUAAAUCCCGUCGUAGCCACCA
DNA 1: CAATCTGAATTCCGGTCTCCC
DNA 2: TGGTGGCTACGACGGGATT
B2: CAAUGUG (DNA:RNA)
RNA: B1 RNA with A25C, C27A, C28U, C30U, A31G
DNA 1: CAATCTGAATTCCGGTCTCCC
DNA 2: TGGTGGCTACGACGGGATT
B3: CGGUGAG (DNA:RNA)
RNA: B1 RNA with A25C, A26G, C27G, C28U, C30A, A31G
DNA 1: CAATCTGAATTCCGGTCTCCC
DNA 2: TGGTGGCTACGACGGGATT
B4: CGUAAAA (DNA:RNA)
RNA: B1 RNA with A25C, A26G, C27U, C28A, G29A, C30A
DNA 1: CAATCTGAATTCCGGTCTCCC
DNA 2: TGGTGGCTACGACGGGATT
B5: UAGUUGG (DNA:RNA)
RNA: B1 RNA with A25U, C27G, C28U, G29U, C30G, A31G
DNA 1: CAATCTGAATTCCGGTCTCCC
DNA 2: TGGTGGCTACGACGGGATT
B6: CUAUCAG (DNA:RNA)
RNA: GGGAGACCGGAAUUCAGAUUGUCCCUAUCAGUUAAAUCCCGUCGUAGCCACCA
DNA 1: CAATCTGAATTCCGGTCTCCC
DNA 2: TGGTGGCTACGACGGGATT
B7: GCAUCUG (DNA:RNA)
RNA: B6 RNA with C25G, U26C, A30U
DNA 1: CAATCTGAATTCCGGTCTCCC
DNA 2: TGGTGGCTACGACGGGATT
B8: CGGGUAG (DNA:RNA)
RNA: B6 RNA with U26G, A27G, U28G, C29U
DNA 1: CAATCTGAATTCCGGTCTCCC
DNA 2: TGGTGGCTACGACGGGATT
B9: GCAUUGG (DNA:RNA)
RNA: B6 RNA with C25G, U26C, C29U, A30G
DNA 1: CAATCTGAATTCCGGTCTCCC
DNA 2: TGGTGGCTACGACGGGATT
B10: CCAGGCC (DNA:RNA)
RNA: B1 RNA with A25C, A26C, C27A, C28G, A31C
DNA 1: CAATCTGAATTCCGGTCTCCC
DNA 2: TGGTGGCTACGACGGGATT
B11: AGGACCA (DNA:RNA)
RNA: B1 RNA with A26G, C27G, C28A, G29C
DNA 1: CAATCTGAATTCCGGTCTCCC
DNA 2: TGGTGGCTACGACGGGATT
B12: UUGCUUU (DNA:RNA)
RNA: B1 RNA with A25U, A26U, C27G, G29U, C30U, A31U
DNA 1: CAATCTGAATTCCGGTCTCCC
DNA 2: TGGTGGCTACGACGGGATT
B13: GUUGAGG (DNA:RNA)
RNA: B6 RNA with C25G, A27U, U28G, C29A, A30G
DNA 1: CAATCTGAATTCCGGTCTCCC
DNA 2: TGGTGGCTACGACGGGATT
B14: AGGCGGU (DNA:RNA)
RNA: B1 RNA with A26G, C27G, C30G, A31U
DNA 1: CAATCTGAATTCCGGTCTCCC
DNA 2: TGGTGGCTACGACGGGATT
B15: CCUAUCC (DNA:RNA)
RNA: B1 RNA with A25C, A26C, C27U, C28A, G29U, A31C
DNA 1: CAATCTGAATTCCGGTCTCCC
DNA 2: TGGTGGCTACGACGGGATT
B16: UAUAUAC (DNA:RNA)
RNA: B1 RNA with A25U, C27U, C28A, G29U, C30A, A31C
DNA 1: CAATCTGAATTCCGGTCTCCC
DNA 2: TGGTGGCTACGACGGGATT
B17: UCCGACG (DNA:RNA)
RNA: B1 RNA with A25U, A26C, C28G, G29A, A31G
DNA 1: CAATCTGAATTCCGGTCTCCC
DNA 2: TGGTGGCTACGACGGGATT
B18: CAAGCAC (DNA:RNA)
RNA: B6 RNA with U26A, U28G, G31C
DNA 1: CAATCTGAATTCCGGTCTCCC
DNA 2: TGGTGGCTACGACGGGATT
B19: GCGGUGG (DNA:RNA)
RNA: B6 RNA with C25G, U26C, A27G, U28G, C29U, A30G
DNA 1: CAATCTGAATTCCGGTCTCCC
DNA 2: TGGTGGCTACGACGGGATT
B20: UCUGCUA (DNA:RNA)
RNA: B1 RNA with A25U, A26C, C27U, C28G, G29C, C30U
DNA 1: CAATCTGAATTCCGGTCTCCC
DNA 2: TGGTGGCTACGACGGGATT
B21: ACGUAAU (DNA:RNA)
RNA: B6 RNA with C25A, U26C, A27G, C29A, G31U
DNA 1: CAATCTGAATTCCGGTCTCCC
DNA 2: TGGTGGCTACGACGGGATT
B22: GAAUAGG (DNA:RNA)
RNA: B6 RNA with C25G, U26A, C29A, A30G
DNA 1: CAATCTGAATTCCGGTCTCCC
DNA 2: TGGTGGCTACGACGGGATT
B23: AUUAGUC (DNA:RNA)
RNA: B1 RNA with A26U, C27U, C28A, C30U, A31C
DNA 1: CAATCTGAATTCCGGTCTCCC
DNA 2: TGGTGGCTACGACGGGATT
B24: GUUUCGG (DNA:RNA)
RNA: B6 RNA with C25G, A27U, A30G
DNA 1: CAATCTGAATTCCGGTCTCCC
DNA 2: TGGTGGCTACGACGGGATT
B25: GCGAUCC (DNA:RNA)
RNA: B1 RNA with A25G, A26C, C27G, C28A, G29U, A31C
DNA 1: CAATCTGAATTCCGGTCTCCC
DNA 2: TGGTGGCTACGACGGGATT
B26: CGGUGGU (DNA:RNA)
RNA: B6 RNA with U26G, A27G, C29G, A30G, G31U
DNA 1: CAATCTGAATTCCGGTCTCCC
DNA 2: TGGTGGCTACGACGGGATT
B27: AGCUUGA (DNA:RNA)
RNA: B1 RNA with A26G, C28U, G29U, C30G
DNA 1: CAATCTGAATTCCGGTCTCCC
DNA 2: TGGTGGCTACGACGGGATT
B28: UAAUCCU (DNA:RNA)
RNA: B6 RNA with C25U, U26A, A30C, G31U
DNA 1: CAATCTGAATTCCGGTCTCCC
DNA 2: TGGTGGCTACGACGGGATT
B29: CCACCAG (DNA:RNA)
RNA: B6 RNA with U26C, U28C
DNA 1: CAATCTGAATTCCGGTCTCCC
DNA 2: TGGTGGCTACGACGGGATT
B30: GUGAUUU (DNA:RNA)
RNA: B6 RNA with C25G, A27G, U28A, C29U, A30U, G31U
DNA 1: CAATCTGAATTCCGGTCTCCC
DNA 2: TGGTGGCTACGACGGGATT
B31: UGUUCCC (DNA:RNA)
RNA: B6 RNA with C25U, U26G, A27U, A30C, G31C
DNA 1: CAATCTGAATTCCGGTCTCCC
DNA 2: TGGTGGCTACGACGGGATT

Numbering of substitutions follows the chain as printed; changes in the protein carry UniProt numbers. The list shows a part of the results.

The target of the test is T1, RBFOX1 RRM RbFoxmut (Fox-RRM*) (Homo sapiens, UniProt Q9NWB1 109-208, R118D;E147R;N151S;E152T).
T1 sequence: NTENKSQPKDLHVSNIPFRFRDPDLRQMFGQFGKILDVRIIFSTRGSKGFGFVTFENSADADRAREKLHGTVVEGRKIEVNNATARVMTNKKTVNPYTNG
Put plainly: EMSA; HiTS-Eq, 1 nM pool, 10 min; buffer printed only for the single-RNA assays: 10 mM Tris pH 7.5, 150 mM NaCl, 3.4 mM EDTA, 0.001% NP-40, 30 C. The conditions noted are these: tags: His6 N-terminal (pET28a); label: 5' 32P. An outline of the steps:
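These values rest on relative association constants, computed from read-count changes of each RNA species versus the control reaction and normalised to the cognate motif. Reads came from free RNA recovered by 8% native PAGE after purified RbFox RRM (wild type or mutant) at increasing concentrations was equilibrated for 10 min in 50 µL with 1 nM of a 5′-radiolabelled pool with 7 randomized nucleotides and DNA-annealed flanks.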
(In general: In EMSA bound probe runs differently from free probe, usually more slowly.)
On to B1, for which the binding signal was 0.129 KA relative to UGCAUGU.
For the molecule B2, the binding signal was 0.0932 KA relative to UGCAUGU.
In the case of B3 it was 0.106 KA relative to UGCAUGU; in that of B4, 0.102 KA relative to UGCAUGU; in that of B5, 0.107 KA relative to UGCAUGU.
As for B6, the figure is 0.0894 KA relative to UGCAUGU.
As for B7, the figure is 0.264 KA relative to UGCAUGU.
For B8, the binding signal is 0.175 KA relative to UGCAUGU.
In the case of B9 it was 0.179 KA relative to UGCAUGU; in that of B10, 0.178 KA relative to UGCAUGU; in that of B11, 0.0698 KA relative to UGCAUGU.
As for B12, the figure is 0.102 KA relative to UGCAUGU; as for B13, 0.0916 KA relative to UGCAUGU.
As for B14, the figure is 0.0942 KA relative to UGCAUGU; as for B15, 0.0723 KA relative to UGCAUGU; as for B16, 0.0907 KA relative to UGCAUGU.
In the case of B17, the binding signal is 0.112 KA relative to UGCAUGU.
Consider B18, for which the binding signal is 0.0665 KA relative to UGCAUGU.
In the case of B19 it was 0.121 KA relative to UGCAUGU; in that of B20, 0.116 KA relative to UGCAUGU; in that of B21, 0.112 KA relative to UGCAUGU.
In the case of B22, the binding signal is 0.0846 KA relative to UGCAUGU.
As for B23, the figure is 0.0751 KA relative to UGCAUGU; as for B24, 0.0724 KA relative to UGCAUGU.
Take B25: the binding signal was 0.058 KA relative to UGCAUGU.
As for B26, the figure is 0.118 KA relative to UGCAUGU.
For B27, the binding signal is 0.164 KA relative to UGCAUGU.
As for B28, the figure is 0.0621 KA relative to UGCAUGU.
B29: the binding signal was 0.14 KA relative to UGCAUGU.
As for B30, the figure is 0.106 KA relative to UGCAUGU; as for B31, 0.0599 KA relative to UGCAUGU.
